Publication PMC12529666
This is one part of the list. At the low end of the ranking the order means little.

target: AGO2 WT (phosphosite mutant background) S387D + S824A + S828D + S831D + S834A (UniProt Q9UKV8); assay: RNA Bind-n-Seq (nitrocellulose filter binding and sequencing); settings: constant regions annealed to DNA blockers; guide miR-122 5' phosphate; 30 mM Tris pH 8.0, 100 mM potassium acetate, 2 mM magnesium acetate, 0.5 mM TCEP, 0.005% NP-40, 0.01 mg/ml yeast tRNA; 3 nM AGO2-miR-122, 100 nM RNA library …; high values mean tight binding

| Sequence | binding signal (fold enrichment over input) |
| --- | --- |
| GAGUUCUACAGUCCGACGAUCCCAACACACUCUACACCUGGAAUUCUCGGGUGCCAA / UGGAGUGUGACAAUGGUGUUUG / GATCGTCGGACTGTAGAACTC / TTGGCACCCGAGAATTCCA | 0.587 |
| GAGUUCUACAGUCCGACGAUCCCAACAUAUUCCACACCUGGAAUUCUCGGGUGCCAA / UGGAGUGUGACAAUGGUGUUUG / GATCGTCGGACTGTAGAACTC / TTGGCACCCGAGAATTCCA | 0.121 |
| GAGUUCUACAGUCCGACGAUCCCAACGCACCCUGCACCUGGAAUUCUCGGGUGCCAA / UGGAGUGUGACAAUGGUGUUUG / GATCGTCGGACTGTAGAACTC / TTGGCACCCGAGAATTCCA | 0.116 |
| GAGUUCUACAGUCCGACGAUCCCAACGUGUCUCACACCUGGAAUUCUCGGGUGCCAA / UGGAGUGUGACAAUGGUGUUUG / GATCGTCGGACTGTAGAACTC / TTGGCACCCGAGAATTCCA | 0.126 |
| GAGUUCUACAGUCCGACGAUCCCAACGCACCCUACACCUGGAAUUCUCGGGUGCCAA / UGGAGUGUGACAAUGGUGUUUG / GATCGTCGGACTGTAGAACTC / TTGGCACCCGAGAATTCCA | 0.113 |
| GAGUUCUACAGUCCGACGAUCCCAACACGCCCCACACCUGGAAUUCUCGGGUGCCAA / UGGAGUGUGACAAUGGUGUUUG / GATCGTCGGACTGTAGAACTC / TTGGCACCCGAGAATTCCA | 0.123 |
| GAGUUCUACAGUCCGACGAUCCCAACACGUCUUACACCUGGAAUUCUCGGGUGCCAA / UGGAGUGUGACAAUGGUGUUUG / GATCGTCGGACTGTAGAACTC / TTGGCACCCGAGAATTCCA | 0.13 |
| GAGUUCUACAGUCCGACGAUCCCAACGUAUCCCACACCUGGAAUUCUCGGGUGCCAA / UGGAGUGUGACAAUGGUGUUUG / GATCGTCGGACTGTAGAACTC / TTGGCACCCGAGAATTCCA | 0.162 |
| GAGUUCUACAGUCCGACGAUCCCAACAUAUCCCACACCUGGAAUUCUCGGGUGCCAA / UGGAGUGUGACAAUGGUGUUUG / GATCGTCGGACTGTAGAACTC / TTGGCACCCGAGAATTCCA | 0.119 |
| GAGUUCUACAGUCCGACGAUCCCAACGCACUCUGCACCUGGAAUUCUCGGGUGCCAA / UGGAGUGUGACAAUGGUGUUUG / GATCGTCGGACTGTAGAACTC / TTGGCACCCGAGAATTCCA | 0.143 |
| GAGUUCUACAGUCCGACGAUCCCAACACACUUCACACCUGGAAUUCUCGGGUGCCAA / UGGAGUGUGACAAUGGUGUUUG / GATCGTCGGACTGTAGAACTC / TTGGCACCCGAGAATTCCA | 0.24 |
| GAGUUCUACAGUCCGACGAUCCCAACGUACCCCACACCUGGAAUUCUCGGGUGCCAA / UGGAGUGUGACAAUGGUGUUUG / GATCGTCGGACTGTAGAACTC / TTGGCACCCGAGAATTCCA | 0.118 |
| GAGUUCUACAGUCCGACGAUCCCAACGCACCUUACACCUGGAAUUCUCGGGUGCCAA / UGGAGUGUGACAAUGGUGUUUG / GATCGTCGGACTGTAGAACTC / TTGGCACCCGAGAATTCCA | 0.132 |
| GAGUUCUACAGUCCGACGAUCCCAACAUACCUCACACCUGGAAUUCUCGGGUGCCAA / UGGAGUGUGACAAUGGUGUUUG / GATCGTCGGACTGTAGAACTC / TTGGCACCCGAGAATTCCA | 0.138 |
| GAGUUCUACAGUCCGACGAUCCCAACGCGUUUCACACCUGGAAUUCUCGGGUGCCAA / UGGAGUGUGACAAUGGUGUUUG / GATCGTCGGACTGTAGAACTC / TTGGCACCCGAGAATTCCA | 0.125 |
| GAGUUCUACAGUCCGACGAUCCCAACGCAUUCCACACCUGGAAUUCUCGGGUGCCAA / UGGAGUGUGACAAUGGUGUUUG / GATCGTCGGACTGTAGAACTC / TTGGCACCCGAGAATTCCA | 0.182 |
